Laboratory results taken from US12465604B2 (priority 2015, dated 2025).

What was measured:
[1] = tested on: OGH reporter virus in activated primary CD4+ T-cells
From the text: Next the role of the LEDGF/p75-IN interplay in activated primary CD4+ T-cells was investigated. Peripheral Blood Mononuclear cells (PBMCs) were purified and CD4+ T-cells selectively enriched using Bi-specific MAb CD3.8 (AIDS reagents) for 5 days and infected with the OGH reporter virus. HIV infection was monitored 3 days post infection using flow cytometry analysis (FIG. 4). […] The lower percentage of latently infected cells in the absence of LEDGIN can be explained by the selective enrichment of CD4+ T-cells and a lower activity of the EF1α promoter in primary cells.
The CD4+ T cells were selectively enriched using Bi-specific MAb CD3.8 (0.5 μg/mL, AIDS reagents) for 5 days. Cells were cultured in RPMI 1640, 15% v/v FBS, 0.1% v/v Gentamicin, 100 U/ml IL-2 (Peprotech) (T-cell medium, TCM). Enriched total CD4+ primary T cells were infected with single round reporter virus for 2 h at 37° C., washed twice in TCM and reseeded in medium containing different concentrations of LEDGIN CX014442. HIV infection was monitored 48 h post infection using flow cytometry analysis.

[2] = tested on: HIV-OGH double reporter virus in SupT1 cells; assay: Reactivation with TNFα, SupT1 cells infected with HIV-OGH double reporter virus; assay type: cell-based, HIV-1; conditions: SupT1, increasing concentrations
Protocol: To corroborate these findings SupT1 cells were infected with the HIV-OGH double reporter virus under different LEDGIN (CX014442) concentrations. SupT1 cells were infected and reactivated under conditions similar to the experiment with HIV tCD34 (FIGS. 2 and 5). Data are represented in FIG. 6. Two different virus dilutions are depicted in panel A and B. In both graphs the percentage eGFP+, mKO2+ cells and overall % mKO2 positive cells is plotted after stimulation with DMSO or TNFα for 24 h. The dashed lines show an increase in percentage of eGFP+, mKO2+ cells after stimulation with TNFα compared to DMSO, while the overall percentage of mKO2 positive cells remains constant. LEDGIN treatment reduces the reactivation of eGFP+, mKO2+ cells in a concentration-dependent manner, with 50 μM of CX014442 reducing reactivation to only 1.5-2 fold (FIG. 6C).
11 days post infection the infected cells were reactivated from latency using TNFalpha (10 ng/mL, Immunosource), SAHA (0.3 to 3 μM, AIDS reagents), prostratin (5 μM, AIDS reagents) or PMA (0.3 μM, AIDS reagents) 24 hours prior to analysis by flow cytometry. Time courses and drug concentrations are indicated in the individual experiments. LEDGINs were synthesized by the Cistim/CD3-facility (courtesy of Dr. A. Marchand).

CCCC(C(=O)O)c1c(C)nc2ccc(Cl)cc2c1-c1ccccc1 (stereo not drawn) [CX014442, 2-(6-chloro-2-methyl-4-phenylquinolin-3-yl)pentanoic acid]
fraction quiescent cells (% eGFP−, mKO2+ cells)/(% mKO2+ cells)*100 ([1]; concentration of 25 μM, one representative donor): 46.3%
% infected cells (% eGFP+/mKO2+ cells or overall % mKO2+ cells) ([1]; trend): dose-dependent decrease
decrease in the latent HIV-1 pool (% eGFP−, mKO2+ cells)/(% mKO2+ cells)*100 upon TNFα [2]: counteracted
